Source: PubChem BioAssay AID624417 (National Center for Advancing Translational Sciences (NCATS), 2012)
Values joined by “and” are separate entries in the source; they are usually repeats but may differ in a detail not shown here. Equal entries are not always repeated. Hit rate of the full screen: of about 410,000 compounds, about 6,400 (1.6%) were called active. The inconclusive results got no clear call from the source; some entries with a clear call stand among them for comparison. Calls follow the shape of the dose curve; as a rule, active = well fitted inhibition curve with a large enough effect; inconclusive = small, poorly fitted or top-dose-only effect; inactive = no such curve, though single readings can be large or run the other way. Potencies beside an inconclusive call are fits to weak or partial responses and may not hold up.

Target: Glucagon-like peptide 1 receptor (Homo sapiens) (UniProt P43220)
Chain of UniProt P43220 (P43220 whole entry, looked up): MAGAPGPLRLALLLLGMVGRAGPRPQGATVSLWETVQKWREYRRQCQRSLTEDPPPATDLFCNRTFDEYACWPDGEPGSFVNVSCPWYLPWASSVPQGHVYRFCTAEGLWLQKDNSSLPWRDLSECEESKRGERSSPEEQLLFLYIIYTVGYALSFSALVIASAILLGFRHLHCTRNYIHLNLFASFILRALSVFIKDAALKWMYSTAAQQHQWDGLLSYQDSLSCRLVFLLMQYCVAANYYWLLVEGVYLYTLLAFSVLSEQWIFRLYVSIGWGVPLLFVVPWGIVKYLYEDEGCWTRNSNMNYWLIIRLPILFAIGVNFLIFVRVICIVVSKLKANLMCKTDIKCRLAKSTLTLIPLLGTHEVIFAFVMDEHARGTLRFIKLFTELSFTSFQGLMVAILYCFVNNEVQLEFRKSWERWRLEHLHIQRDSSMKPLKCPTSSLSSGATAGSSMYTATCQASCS
Assay: qHTS of GLP-1 Receptor Inverse Agonists (Inhibition Mode); also: nearly all actives have a fitted effect of over 55% in size
Settings: HEK293 GLP-1R CRE-luciferase, luminescence, 24 h, GLP-1R form is constitutively active; series mostly up to 38.3 µM
Summary of the method: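 Assay principle: reduced luminescence from a cAMP-responsive reporter in HEK293 cells co-expressing a constitutively active GLP-1R. Conditions: 24 hr compound incubation, 37 deg C, 5% CO2.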
Potency is read from the fitted curve at half-maximal effect; tags tell the direction and shape of the fitted curve.

How did the Potency turn out when `COc1ccccc1N1CCN(C(=O)Cn2ncc3c(=O)oc4ccccc4c32)CC1` was run?
Its Potency is “inactive”.

Which Potency does the source give for `CCOC(=O)c1cc(-c2ccc(F)cc2)n(CC(=O)N2CCCC2)c1C` here?
Its Potency is inconclusive: 28.2 µM [inhibitor, single point].

`C[C@]12CCC(=O)C=C1CC[C@@H]1[C@@H]2[C@@H](O)C[C@@]2(C)[C@H]1CC[C@]2(O)C(=O)COC(=O)CCC(=O)O` was tested. Which Potency did it give?
Its Potency is “inactive”.

For `Cc1cccc(N2CCN(S(=O)(=O)c3ccc4c(c3)CCCN4C(=O)C3CCC3)CC2)c1C`, which Potency is on record?
The Potency was inconclusive: 20 µM [inhibitor, single point] and inconclusive: 28.2 µM [inhibitor, single point].

For `COc1ccccc1C(=O)Nc1c(C(=O)N(C)Cc2ccccc2)sc2nc(C)c(Cl)c(C)c12`, which Potency is on record?
The Potency was inconclusive: 14.1 µM [inhibitor, single point].

How did the Potency turn out when `CC(=O)C(C)Oc1cc(C)cc2oc(=O)c(C)c(C)c12` (configuration not stated) was run?
Its Potency is “inactive”.

For `CC(NC(=O)c1ccccc1NC(=O)CN1CCc2ccccc2C1)c1ccccc1` (configuration not stated), which Potency is on record?
The Potency was inconclusive: 31.6 µM [inhibitor, partial curve, poor fit].

For `Cc1nc2c(C(=O)NCCc3ccc(Cl)cc3)c[nH]n2c(=O)c1Cc1ccc(Cl)cc1`, which Potency is on record?
The Potency was inconclusive: 31.6 µM [inhibitor, single point].

With `COc1ccc(CCNC(=O)c2nn(C)c3c2CS(=O)(=O)c2ccccc2-3)cc1OC` as the compound, how does the Potency read?
Its Potency is “inactive”.

`CCc1nc2c(OCCOc3ccccc3)cccn2c1N(C)C(=O)c1ccccc1F` was tested. Which Potency did it give?
The Potency was “inactive”.

Which Potency does the source give for `C[C@H](NC(=O)c1nc[nH]c1C(=O)N[C@@H](C)c1ccccc1)c1ccccc1` here?
The Potency was inconclusive: 12.6 µM [inhibitor, single point].

How did the Potency turn out when `Cc1ccc(C)c(CNc2ccc(S(=O)(=O)N3CCCCC3)cc2)c1` was run?
The Potency was inconclusive: 11.2 µM [inhibitor, partial curve, poor fit].

How did the Potency turn out when `CN(CCCNC(=O)CSc1cc(=O)n(C)c2cc(Cl)ccc12)Cc1ccccc1` was run?
The Potency was active: 7.94 µM.

Which Potency does the source give for `COC(=O)c1cc(NC(=O)CC2SC(=Nc3ccccc3)N(CCc3c[nH]c4ccccc34)C2=O)cc(C(=O)OC)c1` (configuration not stated) here?
The Potency was active: 4.47 µM.

Which Potency does the source give for `COc1ccc(CNC(=O)O[C@]23C[C@H]4C(=O)N(c5ccccc5)C(=O)[C@H]4C[C@@]2(O)CN(S(=O)(=O)c2ccc(C)cc2)C3)cc1OC` here?
The Potency was “inactive”.

With `COc1ccccc1CCNC(=O)c1ccc2c(c1)c(C)c(C)n2Cc1ccc(Cl)cc1` as the compound, how does the Potency read?
Its Potency is inconclusive: 6.31 µM [inhibitor, partial curve, poor fit].

With `CCCCCCSc1cc(-c2nc3ccc(C)cn3c2NCCCC)ccc1OC` as the compound, how does the Potency read?
The Potency was inconclusive: 10 µM [inhibitor, single point].

For `CC(C)(Oc1ccc(Cl)cc1)C(=O)N1CCN(c2ccccn2)CC1`, which Potency is on record?
The Potency was inconclusive: 8.91 µM [inhibitor, partial curve, poor fit].

Which Potency does the source give for `OC(COc1c(F)cc(Br)cc1F)CN1CCN(c2ccc(F)cc2)CC1` (configuration not stated) here?
The Potency was inconclusive: 12.6 µM [inhibitor, partial curve, poor fit].

`O=C(CNS(=O)(=O)c1ccc(Cl)cc1)N1CCN(c2ccc(F)cc2)CC1` was tested. Which Potency did it give?
The Potency was inconclusive: 28.2 µM [inhibitor, single point].

How did the Potency turn out when `CC1CN(Cc2csc(-c3ccc(Cl)cc3)n2)CC(C)O1` (configuration not stated) was run?
Its Potency is inconclusive: 22.4 µM [inhibitor, single point].

For `COc1ccc(-c2cc(C(=O)N(C)CC(=O)Nc3cccc(F)c3)c3ccccc3n2)cc1OC`, which Potency is on record?
The Potency was inconclusive: 28.2 µM [inhibitor, single point].

With `O=C(NCc1ccccc1Cl)C1CCCN(C(=O)c2cnn(-c3ccccc3)c2-n2cccc2)C1` (configuration not stated) as the compound, how does the Potency read?
Its Potency is inconclusive: 10 µM [inhibitor, single point].

With `CCCCOc1ccc(CN=C(N)N)cc1Cl` as the compound, how does the Potency read?
The Potency was inconclusive: 15.8 µM [inhibitor, partial curve, poor fit].

With `O=C(Cn1ncc2c3ccccc3n(Cc3ccccc3)c2c1=O)N1CCN(c2ccccn2)CC1` as the compound, how does the Potency read?
The Potency was inconclusive: 12.6 µM [inhibitor, single point].

With `O=C(c1ccc2c(c1)OCO2)N1CCN(c2cccc(C(F)(F)F)c2)CC1` as the compound, how does the Potency read?
Its Potency is inconclusive: 10 µM [inhibitor, partial curve, poor fit].

For `Cc1cccc(C)c1-n1ncc(C(=O)Nc2ccc3c(c2)OCO3)c1C1CCN(C(=O)OC(C)(C)C)CC1`, which Potency is on record?
Its Potency is inconclusive: 22.4 µM [inhibitor, single point].

`COc1cccc(-c2cc(C(F)(F)F)nc(NCCc3ccccc3)n2)c1` was tested. Which Potency did it give?
The Potency was inconclusive: 22.4 µM [inhibitor, single point].

`O=C(NCc1cccs1)C1CCCN(C(=O)Nc2ccc(F)cc2)C1` (configuration not stated) was tested. Which Potency did it give?
Its Potency is inconclusive: 8.91 µM [inhibitor, partial curve, poor fit].

`O=C(CNS(=O)(=O)c1ccc([N+](=O)[O-])cc1)N/N=C/c1ccc(O)cc1O` was tested. Which Potency did it give?
Its Potency is inconclusive: 22.4 µM [inhibitor, single point].

How did the Potency turn out when `O=C(CCN1C(=O)CSc2ccccc21)Nc1ccc(OC(F)(F)F)cc1` was run?
Its Potency is inconclusive: 28.2 µM [inhibitor, single point].

Which Potency does the source give for `CCOC(=O)c1c(CSCc2ccccc2)oc2ccc(O)c(CN(C)C)c12` here?
Its Potency is inconclusive: 7.08 µM [inhibitor, partial curve, poor fit].

Which Potency does the source give for `Cc1cccc(N2CC(C(=O)OCC(=O)c3ccc(OC(=O)c4cccs4)cc3)CC2=O)c1C` (configuration not stated) here?
Its Potency is “inactive”.

Which Potency does the source give for `COc1cccc(CNC(=O)CN(C)S(=O)(=O)c2ccc3[nH]c4c(c3c2)CCCC4)c1` here?
The Potency was inconclusive: 11.2 µM [inhibitor, single point].

How did the Potency turn out when `Cc1ccc(C(=O)N2CCCC(N3CCN(c4ccccc4F)CC3)C2)s1` (configuration not stated) was run?
The Potency was inconclusive: 8.91 µM [inhibitor, partial curve, poor fit].

How did the Potency turn out when `O=C(NC(=S)Nc1ccc(Br)c(Cl)c1)C1CC1` was run?
Its Potency is inconclusive: 28.2 µM [inhibitor, single point].

How did the Potency turn out when `CN(C(=O)c1sc2nc(N3CCOCC3)c3c(c2c1N)CCCC3)c1ccccc1` was run?
Its Potency is inconclusive: 31.6 µM [inhibitor, partial curve, poor fit].
